This note sets out measurements from ChEMBL document CHEMBL4888484, “Replenishing the malaria drug discovery pipeline: Screening and hit evaluation of the MMV Hit Generation Library 1 (HGL1) against asexual blood stage Plasmodium falciparum ,using a nano luciferase reporter read-out” (2022).

The structures appear in SMILES notation. The whole screen tested about 150,000 compounds, of which about 540 (0.36%) showed an effect of 50% or more. The list shows a part of the results.

For orientation: % Inhibition means the relative decrease from the control value, in per cent.

The assay relates to Plasmodium falciparum. As to the kind of experiment: Primary screen in NF54 nanoGlo assay, in single point, at 2uM, 72h; a lower Z score goes with more inhibition. Format: functional, Erythrocyte. The following applies: timepoint 72 hour.
Consider `CCC(CC)(CC)S(=O)(=O)Cc1cc(C)no1`, for which the “% Inhibition” value is on record as -5% and the Z score came to 0.69.

Consider `NC(=O)c1cnc(-c2ccc(F)cc2)n(CC(=O)Nc2ccc(Cl)cc2)c1=O`, for which the “% Inhibition” value was -16% and the Z score is reported as 2.5.

For `Cc1cc(Br)ccc1CC(=O)N1CCCS1(=O)=O`, the “% Inhibition” value came to 3% and the Z score is recorded as -0.29.

As to `O=S(=O)(NCC1CC1)c1cccnc1N1CC2CC2(CO)C1` (stereo unspecified), the “% Inhibition” value is given as 3% and the Z score is recorded as -0.38.

Take `CCc1cc(-c2n[nH]c(C)c2-c2ccc3c(c2)OCCO3)c(O)cc1OCc1cccc(OC)c1`: the “% Inhibition” value is given as -7% and the Z score worked out at 0.89.

In the case of `CN(C(=O)[C@H]1CCc2nnnn2CC1)c1cnn(C)c1`, the “% Inhibition” value was 10% and the Z score is -1.31.

Turning to `CS(=O)(=O)N(Cc1ccccn1)C1CN(C(=O)NCc2ccccc2)C1`, the “% Inhibition” value was found to be 8% and the Z score is reported as -1.61.

On to `COc1ccc(C(=O)N2CCN(C(=O)c3cccnc3)[C@@H](C(=O)N[C@H]3CCCNC3=O)C2)cc1`, for which the “% Inhibition” value is -7% and the Z score was determined as 1.08.

For the compound `CC(NC(=O)C1CCCCN1)c1cc(F)c(F)c(F)c1` (stereo unspecified), the “% Inhibition” value is on record as 3% and the Z score is -0.47.

In the case of `O=S(=O)(c1ccc(Cl)cc1)N(c1ccccc1)C1CCN(Cc2c(F)cccc2F)CC1`, the “% Inhibition” value was 7% and the Z score is recorded as -0.87.

For `C[C@H](Nc1ccc(Cl)cc1Cl)C(=O)NCCC(=O)N(C)C`, the “% Inhibition” value is -16% and the Z score turned out to be 2.32.

In the case of `CCN(C(=O)N(C)C)c1ccccc1C`, the “% Inhibition” value is -6% and the Z score amounted to 1.15.

Consider `CCCNC(=O)CNc1ncc(S(=O)(=O)NCCO)cc1C(F)(F)F`, for which the “% Inhibition” value is -11% and the Z score was found to be 2.14.

On to `Cc1nccn1CC(=O)NCC1CCN(C(=O)c2ccc3scnc3c2)CC1`, for which the “% Inhibition” value is listed as -7% and the Z score was determined as 1.03.

For `C[C@@H](C(=O)NCCc1ncc[nH]1)n1cccn1`, the “% Inhibition” value is recorded as 1% and the Z score is -0.13.

As to `CCCc1cnc(C)nc1NCc1csc(N)n1`, the “% Inhibition” value is recorded as -2% and the Z score is 0.25.

In the case of `CCN1CCN(Cc2nc3cc(NC(=O)c4ccccc4Cl)ccc3n2C(C)C)CC1`, the “% Inhibition” value stood at 7% and the Z score is recorded as -0.57.

For the compound `COc1ccc(S(=O)(=O)Oc2ccccc2CN(CC2CC2)C(=O)NC(C)(C)C)cc1`, the “% Inhibition” value is listed as -3% and the Z score was determined as 0.31.

With `CCOC1CC(NC(C)c2cccnc2)C1Oc1ccccc1` (stereo unspecified), the “% Inhibition” value was -13% and the Z score amounted to 1.68.

On to `COc1ccc(OC)c(NC(=O)CN2CCC3(CC2)N=C(c2ccc(C)c(C)c2)C(=O)N3)c1`, for which the “% Inhibition” value amounted to 1% and the Z score is listed as -0.18.

As for `CN(C)CC(C)(C)CNC(=O)c1cnn(-c2nccc(-c3ccccc3F)n2)c1C1CC1`, the “% Inhibition” value was -12% and the Z score worked out at 1.57.

In the case of `Cn1cc(CNc2ccc(F)cc2F)nn1`, the “% Inhibition” value was -10% and the Z score is recorded as 1.53.

Regarding `Cc1ccc(C#N)c(-c2cccc(-c3ccn(Cc4ccncc4)n3)c2)n1`, the “% Inhibition” value was -10% and the Z score is listed as 1.46.

Take `CN(C)C(=O)N1CCCC[C@H]1c1nnc2n1CCN(C(=O)c1ccccn1)C2`: the “% Inhibition” value came to 1% and the Z score was -0.12.

With `COCc1nc(CN2CCS(=O)(=O)C[C@@H]2C)cs1`, the “% Inhibition” value turned out to be 4% and the Z score is recorded as -0.52.

Consider `CNc1nc(NCc2ccccc2)nc2ccccc12`, for which the “% Inhibition” value is on record as 81% and the Z score is -8.4.

As to `CCOC(=O)c1cnn2cc(CNc3cc(CC)nn3C)cnc12`, the “% Inhibition” value is recorded as -5% and the Z score turned out to be 0.77.

Turning to `O=c1ccc(N2CCN(S(=O)(=O)c3ccc4c(c3)CCCC4)CC2)nn1-c1ccc(Cl)cc1`, the “% Inhibition” value was 13% and the Z score was -1.56.

`O=c1ccccn1Cc1cc(Cl)c2c(c1)OCCO2`: the “% Inhibition” value is recorded as -11% and the Z score was found to be 1.67.

Take `Cc1nn(C)c(C)c1-c1cc(C(C)(C)C)nc(NC2CC2)n1`: the “% Inhibition” value is given as -12% and the Z score was found to be 1.49.

In the case of `O=C(Nc1cc(C2CCCC2)[nH]n1)[C@@H]1C[C@H]2CC[C@@H]1O2`, the “% Inhibition” value is -14% and the Z score is reported as 1.82.

With `C[C@@H]1CN(c2nccs2)CC[C@@]1(O)C1CCOCC1`, the “% Inhibition” value is reported as -15% and the Z score worked out at 2.96.

Consider `Cc1ccccc1NC(=O)c1cn(CCNCc2ccc3c(c2)OCO3)nn1`, for which the “% Inhibition” value is on record as -19% and the Z score is 1.7.

Regarding `Cc1cc(COC(=O)c2cc(Cl)c[nH]2)no1`, the “% Inhibition” value is listed as -2% and the Z score worked out at 0.33.

For `CCc1nn(C)c(OC)c1CN[C@H]1CCN(c2ccc(C)cc2)C1`, the “% Inhibition” value is reported as -6% and the Z score was 0.62.

For `Cc1cccc(C)c1CNc1ccn(CC(=O)N2CCN(C)CC2)n1`, the “% Inhibition” value was -13% and the Z score was found to be 1.21.

Regarding `O=C(CCS(=O)(=O)Cc1noc(-c2cccs2)n1)NCc1ccccc1Cl`, the “% Inhibition” value is listed as 33% and the Z score is given as -3.73.

Consider `CS(=O)(=O)N(CC(=O)NCc1ccc2c(c1)OCO2)c1ccc(F)c(F)c1`, for which the “% Inhibition” value is given as 31% and the Z score was -3.54.

Consider `COC(=O)[C@@H]1C[C@H](O)CCN1C(=O)OC(C)(C)C`, for which the “% Inhibition” value is 33% and the Z score is reported as -4.21.

Turning to `CN1CCC(N(C)CC(NCC2CCC=CO2)c2ccccc2)CC1` (stereo unspecified), the “% Inhibition” value is given as -4% and the Z score is reported as 0.49.

As to `CC(C)c1nnc(CN2CCC(C(F)(F)F)(C(F)(F)F)C2)o1`, the “% Inhibition” value is given as -6% and the Z score amounted to 0.57.

Consider `Cc1ccc(NC(=O)N[C@@H](CC(C)C)C(=O)O)cc1C`, for which the “% Inhibition” value is -2% and the Z score turned out to be 0.24.

On to `COc1ccc(-c2nc3c(cnn3Cc3ccncc3)[nH]2)cc1OC`, for which the “% Inhibition” value is -6% and the Z score is 0.89.
